# Experimental data: PubChem BioAssay AID1508623 (National Center for Advancing Translational Sciences (NCATS), 2021)
# Hit rate of the full screen: of about 48,000 compounds, about 450 (0.94%) were called active. Not shown: some 19% with an inconclusive outcome. Calls follow the shape of the dose curve; as a rule, active = well fitted inhibition curve with a large enough effect; inconclusive = small, poorly fitted or top-dose-only effect; inactive = no such curve, though single readings can be large or run the other way. The list shows a part of the results.
# Test: Primary qHTS for Identification of Small Molecule Inhibitors of Huntingtin Promoter Activity; also: nearly all actives have a fitted effect of over 50% in size
# Conditions: HEK293 HTT promoter firefly luciferase reporter (activity 0% = vehicle and -100% = no light), 24 h; series mostly up to 57.5 µM; activity change, negative = inhibition: at the top concentration
# Method in brief: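 Quantitative HTS used concentration series of up to 57.5 uM final on HEK293 luciferase reporter cells, 24 h at 37 degrees C. Readout was Dual-Glo firefly luminescence.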
# Potency is read from the fitted curve at half-maximal effect.
SMILES,Potency,"activity change, negative = inhibition"
Cc1oc(-c2ccc(C(=O)Nc3cccc(C(F)(F)F)c3)cc2)nc1CSc1ccccc1,active: 1.78 µM,–
COc1ccc(Nc2nc3ccc(Cl)cc3n3nnnc23)cc1OC,–,inactive: -13.1%
COc1ccc(-c2nc3scc(CCNS(=O)(=O)c4ccc(F)c(C(F)(F)F)c4)n3n2)cc1OC,–,inactive: -19.2%
O=C(Oc1ccccc1Cl)c1cc(-c2ccc3c(c2)OCCO3)on1,–,inactive: 35.3%
CCN1CCN(c2cc(C)c3cc(NC(=O)c4cccc(Cl)c4)ccc3n2)CC1,–,inactive: 35.3%
Cc1ccc(NC(=O)c2cnc(N3CCCCC3)c3ccccc23)cc1Cl,–,inactive: -19.3%
Cc1n[nH]c(C)c1CCc1nc2c3ccccc3nc(SCC(=O)Nc3ccc(F)cc3)n2n1,–,inactive: -5.3%
COC(=O)c1scc(-c2ccc(C)cc2)c1S(=O)(=O)Nc1cccc(Cl)c1C,–,inactive: -18.8%
Cc1ccc(CNC(=O)Cn2cc(S(=O)(=O)Cc3cccc(Cl)c3)c3ccccc32)cc1,–,inactive: -18.8%
COc1ccc(-c2nc3nc(C)cc(Nc4cccc(C(F)(F)F)c4)n3n2)cc1,–,inactive: 1.89%
COc1ccc(NC(=O)COc2ccc(S(=O)(=O)NC3CCCCC3)cc2)c(OC)c1,–,inactive: -12.3%
O=C(CCCc1nc(-c2ccccc2)no1)Nc1cc(C(F)(F)F)cc(C(F)(F)F)c1,–,inactive: -22.7%
O=C(Nc1nnc(S(=O)(=O)N2CCCCC2)s1)c1ccc(F)cc1,–,inactive: -8.56%
Cc1cc(C)c(Cn2c3ccccc3c3cnn(CC(=O)NCc4ccc(Cl)cc4)c(=O)c32)c(C)c1,–,inactive: -18.8%
CC1=C(C(=O)Nc2ccccc2C)C(c2ccco2)n2ncnc2N1 (stereo not drawn),–,inactive: -3.62%
Cc1noc(Cn2c(=O)c3ccccc3n(CC(=O)Nc3ccc(F)cc3F)c2=O)n1,–,inactive: -2.87%
O=C(CN(c1cc(C(F)(F)F)ccc1Cl)S(=O)(=O)c1ccccc1)NCCc1ccccc1,–,inactive: -8.36%
COc1ccc(-c2c(C#N)c(SCC(=O)Nc3ccc(Br)cc3)nc(C)c2C(=O)Nc2ccccc2)cc1,–,inactive: 11%
CCOc1ccc(CCNC(=O)c2ccc3c(c2)N(Cc2ccccc2)C(=O)c2ccccc2S3=O)cc1OCC (stereo not drawn),–,inactive: -14.9%
COC(=O)c1ccccc1NC(=O)c1cc2c(s1)-c1ccccc1OC2,–,inactive: -19.2%
O=C(CSc1nc(-c2ccccc2)c2ccccc2n1)Nc1ccc(F)cc1,–,inactive: 2.59%
OC(CN1CCN(c2cccc(Cl)c2)CC1)C(c1ccccc1)c1ccccc1 (stereo not drawn),–,inactive: -11.8%
Cc1cc(C)c(S(=O)(=O)NCCc2cc3ccc(C)cc3[nH]c2=O)c(C)c1,–,inactive: -23.6%
CC1=C(C(=O)N2CCCCC2)C(c2cccc(Cl)c2)n2c(nc3ccccc32)N1 (stereo not drawn),–,inactive: -7.27%

SMILES,Potency,"activity change, negative = inhibition"
Cc1ccc(C)c(N2CCN(C(=O)CN3C(=O)COc4ccc(S(=O)(=O)N5CCC(C)CC5)cc43)CC2)c1,–,inactive: -17.5%
COc1ccc(NC(=O)c2c(C)oc3ccc(O)c(CN4CCCCCC4)c23)cc1,–,inactive: -7.6%
Cc1ccc(N2CCN(S(=O)(=O)c3ccc(-n4cnnn4)cc3)CC2)c(C)c1,–,inactive: -1.85%
O=c1[nH]c(=O)n([C@H]2C[C@H](O)[C@@H](CO)O2)cc1Br,–,inactive: 15.3%
Cc1[nH]cnc1-c1ccc(Cl)cc1,–,inactive: 5.52%
Cc1ccc(Cl)cc1N1CCN(C(=O)c2ccc3c(c2)N(Cc2ccccc2)CCS3)CC1,–,inactive: -7.16%
CCn1nnc2cc(C(=O)Nc3ccc(OC)cc3)ccc21,–,inactive: 71.9%
COc1ccc(CCNC(=O)c2cc(=O)[nH]c3ccc(S(=O)(=O)N4CCCCC4C)cc23)cc1OC (stereo not drawn),–,inactive: -31.4%
Cc1cn2c(=O)cc(COC(=O)c3ccc(NC(=O)C(C)Oc4ccccc4)cc3)nc2s1 (stereo not drawn),–,inactive: -13.2%
CCOCCCNC(=O)c1c(NC(=O)c2nc(SC)ncc2Cl)sc2c1CCCC2,–,inactive: -7.61%
COc1ccc(OC)c(NC(=O)CCNC(=O)Cn2cnc3ccccc3c2=O)c1,–,inactive: -12% [at 11.5 µM]
Fc1ccc(Nc2c(-c3ccccn3)nc3ccc(Cl)cn23)cc1,–,inactive: 2.83%
O=C(NCCc1ccccc1)c1nn(-c2ccccc2Cl)nc1CO,–,inactive: -25.2%
COc1cccc(NC(=O)Cc2csc(COc3cccc(C)c3)n2)c1,–,inactive: -6.12%
CCCCC1(COC(=O)CCC(=O)O)C(=O)N(c2ccccc2)N(c2ccccc2)C1=O,–,inactive: 0.16%
COCCn1c(C)cc(O)c(C(c2ccc(OC)cc2)N2CCN(c3ccccc3)CC2)c1=O (stereo not drawn),–,inactive: -17.8%
Cc1cc(C)cc(NC(=O)COCc2cc(-c3ccc4c(c3)OCO4)on2)c1,–,inactive: -4.11%
CC1CCCCN1C(=O)CSc1c2c(nc3cc(Cl)ccc13)CCCC2 (stereo not drawn),–,inactive: -8.21%
COc1cccc(N2CCN(C(=O)C3CCN(S(=O)(=O)c4cn(C)cn4)CC3)CC2)c1,–,inactive: -9.77%
CCOCCn1c(=O)c2c(nc3n2CCN3c2ccc(C)c(C)c2)n(C)c1=O,–,inactive: -2.59%
NS(=O)(=O)c1ccc(NC(=O)c2csnn2)cc1,–,inactive: -7.39%
COc1ccc(NC(=O)CN(C)S(=O)(=O)c2ccc3c(c2)c(=O)n(C)c(=O)n3C)cc1,–,inactive: -13.6%
COc1ccc(-c2nc3ccc(Cl)cn3c2Nc2ccc(C)cc2)cc1,–,inactive: 4.57%
COc1ccc(OCC2c3cc(OC)c(OC)cc3CCN2C(=O)c2c(F)cccc2F)cc1 (stereo not drawn),–,inactive: -24.7%
